# Reference: the supplement of paper PMC8728848
# The list shows a part of the results.
# How the values were obtained:
# Test in all cases: glycan array binding signal (z-score within array); higher = stronger binding
# Conditions in all cases: glycan notation: IUPAC condensed, linker removed
# [1] = biological target: Neu5Ac(a2-6)Gal(b1-4)GlcNAc(b1-2)Man(a1-3)[Man(a1-6)]Man(b1-4)GlcNAc(b1-4)GlcNAc
# How it was run: (§1)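 The binding signal is a Z-score computed within each array and averaged over linkers. Arrays of the same protein sequence at different concentrations or buffers were also averaged together. Data originate from 3228 arrays in the Consortium for Functional Glycomics database, kept only where the protein sequence was available.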
# [2] = biological target: Neu5Ac(a2-6)Gal(b1-4)GlcNAc(b1-2)Man(a1-3)[Neu5Ac(a2-3)Gal(b1-4)GlcNAc(b1-2)Man(a1-6)]Man(b1-4)GlcNAc(b1-4)GlcNAc
# How it was run: as §1
# [3] = biological target: Neu5Ac(a2-6)Gal(b1-4)GlcNAc(b1-2)Man(a1-3)[Neu5Ac(a2-6)Gal(b1-4)GlcNAc(b1-2)Man(a1-6)]Man(b1-4)GlcNAc(b1-4)GlcNAc
# How it was run: as §1
# [4] = biological target: Neu5Ac(a2-6)Gal(b1-4)GlcNAc(b1-2)Man(a1-3)[Neu5Ac(a2-6)Gal(b1-4)GlcNAc(b1-2)Man(a1-6)]Man(b1-4)GlcNAc(b1-4)[Fuc(a1-6)]GlcNAc
# How it was run: as §1
# [5] = biological target: Neu5Ac(a2-6)Gal(b1-4)GlcNAc(b1-2)Man(a1-6)Man(b1-4)GlcNAc(b1-4)GlcNAc
# How it was run: as §1
# [6] = biological target: Neu5Ac(a2-6)Gal(b1-4)GlcNAc(b1-2)Man(a1-6)[Gal(b1-4)GlcNAc(b1-2)Man(a1-3)]Man(b1-4)GlcNAc(b1-4)GlcNAc
# How it was run: as §1
# [7] = biological target: Neu5Ac(a2-6)Gal(b1-4)GlcNAc(b1-2)Man(a1-6)[GlcNAc(b1-2)Man(a1-3)]Man(b1-4)GlcNAc(b1-4)GlcNAc
# How it was run: as §1
# [8] = biological target: Neu5Ac(a2-6)Gal(b1-4)GlcNAc(b1-2)Man(a1-6)[Man(a1-3)]Man(b1-4)GlcNAc(b1-4)GlcNAc
# How it was run: as §1
# [9] = biological target: Neu5Ac(a2-6)Gal(b1-4)GlcNAc(b1-2)[Neu5Ac(a2-6)Gal(b1-4)GlcNAc(b1-4)]Man(a1-3)[GlcNAc(b1-4)][Neu5Ac(a2-6)Gal(b1-4)GlcNAc(b1-2)[Neu5Ac(a2-6)Gal(b1-4)GlcNAc(b1-6)]Man(a1-6)]Man(b1-4)GlcNAc(b1-4)GlcNAc
# How it was run: as §1
# [10] = biological target: Neu5Ac(a2-6)Gal(b1-4)GlcNAc(b1-2)[Neu5Ac(a2-6)Gal(b1-4)GlcNAc(b1-4)]Man(a1-3)[GlcNAc(b1-4)][Neu5Ac(a2-6)Gal(b1-4)GlcNAc(b1-4)Man(a1-6)]Man(b1-4)GlcNAc(b1-4)GlcNAc
# How it was run: as §1
# [11] = biological target: Neu5Ac(a2-6)Gal(b1-4)GlcNAc(b1-2)[Neu5Ac(a2-6)Gal(b1-4)GlcNAc(b1-6)]Man(a1-6)[Neu5Ac(a2-6)Gal(b1-4)GlcNAc(b1-2)Man(a1-3)][GlcNAc(b1-4)]Man(b1-4)GlcNAc(b1-4)GlcNAc
# How it was run: as §1
# [12] = biological target: Neu5Ac(a2-6)Gal(b1-4)GlcNAc(b1-3)Gal(b1-3)GlcNAc
# How it was run: as §1
# [13] = biological target: Neu5Ac(a2-6)Gal(b1-4)GlcNAc(b1-3)Gal(b1-4)GlcNAc
# How it was run: as §1
# [14] = biological target: Neu5Ac(a2-6)Gal(b1-4)GlcNAc(b1-3)Gal(b1-4)GlcNAc(b1-2)Man(a1-3)[Neu5Ac(a2-6)Gal(b1-4)GlcNAc(b1-3)Gal(b1-4)GlcNAc(b1-2)Man(a1-6)]GalNAc
# How it was run: as §1
# [15] = biological target: Neu5Ac(a2-6)Gal(b1-4)GlcNAc(b1-3)Gal(b1-4)GlcNAc(b1-3)Gal(b1-4)GlcNAc
# How it was run: as §1
# [16] = biological target: Neu5Ac(a2-6)Gal(b1-4)GlcNAc(b1-3)Gal(b1-4)GlcNAc(b1-3)Gal(b1-4)GlcNAc(b1-2)Man(a1-3)[Neu5Ac(a2-6)Gal(b1-4)GlcNAc(b1-3)Gal(b1-4)GlcNAc(b1-3)Gal(b1-4)GlcNAc(b1-2)Man(a1-6)]GalNAc
# How it was run: as §1
# [17] = biological target: Neu5Ac(a2-6)Gal(b1-4)GlcNAc(b1-3)Gal(b1-4)GlcNAc(b1-3)GalNAc
# How it was run: as §1
# [18] = biological target: Neu5Ac(a2-6)Gal(b1-4)GlcNAc(b1-3)Gal(b1-4)GlcNAc(b1-3)[Neu5Ac(a2-6)Gal(b1-4)GlcNAc(b1-3)Gal(b1-4)GlcNAc(b1-6)]GalNAc
# How it was run: as §1
# [19] = biological target: Neu5Ac(a2-6)Gal(b1-4)GlcNAc(b1-3)Gal(b1-4)GlcNAc(b1-6)[Gal(b1-3)]GalNAc
# How it was run: as §1
# [20] = biological target: Neu5Ac(a2-6)Gal(b1-4)GlcNAc(b1-3)Gal(b1-4)[Fuc(a1-3)]GlcNAc(b1-3)Gal(b1-4)[Fuc(a1-3)]GlcNAc
# How it was run: as §1
# [21] = biological target: Neu5Ac(a2-6)Gal(b1-4)GlcNAc(b1-3)GalNAc
# How it was run: as §1
# [22] = biological target: Neu5Ac(a2-6)Gal(b1-4)GlcNAc(b1-3)[Neu5Ac(a2-6)Gal(b1-4)GlcNAc(b1-6)]GalNAc
# How it was run: as §1
# [23] = biological target: Neu5Ac(a2-6)Gal(b1-4)GlcNAc(b1-6)GalNAc
# How it was run: as §1
# [24] = biological target: Neu5Ac(a2-6)Gal(b1-4)GlcNAc(b1-6)[Gal(b1-3)GlcNAc(b1-3)]Gal(b1-4)Glc
# How it was run: as §1
# [25] = biological target: Neu5Ac(a2-6)Gal(b1-4)GlcNAc(b1-6)[Gal(b1-3)]GalNAc
# How it was run: as §1
# [26] = biological target: Neu5Ac(a2-6)Gal(b1-4)GlcNAc6S
# How it was run: as §1
# [27] = biological target: Neu5Ac(a2-6)GalNAc
# How it was run: as §1
# [28] = biological target: Neu5Ac(a2-6)GalNAc(b1-4)GlcNAc
# How it was run: as §1
# [29] = biological target: Neu5Ac(a2-6)GalNAc(b1-4)GlcNAc6S
# How it was run: as §1
# [30] = biological target: Neu5Ac(a2-6)GlcNAc(b1-4)GlcNAc
# How it was run: as §1
binder,measurement,setting,value
"CBM13 2a (Mycobacterium tuberculosum), P64849 (protein) DGPVQLKSRLGDVCLDAPSGSWFSPLVINPCNGTDFQRWNLTDDRQVESVAFPGECVNIGNALWARLQPCVNWISQHWTVQPDGLVKSDLDACLTVLGGPDPGTWVSTRWCDPNAPDQQWDSVPLEHHHHHH",glycan array binding signal (z-score),[1],-0.039
same,glycan array binding signal (z-score),[2],-0.182
same,glycan array binding signal (z-score),[3],-0.069
same,glycan array binding signal (z-score),[4],-0.14
same,glycan array binding signal (z-score),[5],-0.157
same,glycan array binding signal (z-score),[6],-0.18
same,glycan array binding signal (z-score),[7],-0.189
same,glycan array binding signal (z-score),[8],-0.19
same,glycan array binding signal (z-score),[9],0.194
same,glycan array binding signal (z-score),[10],0.096
same,glycan array binding signal (z-score),[11],-0.088
same,glycan array binding signal (z-score),[12],-0.366
same,glycan array binding signal (z-score),[13],-0.136
same,glycan array binding signal (z-score),[14],0.542
same,glycan array binding signal (z-score),[15],-0.13
same,glycan array binding signal (z-score),[16],4.67
same,glycan array binding signal (z-score),[17],0.076
same,glycan array binding signal (z-score),[18],8.64
same,glycan array binding signal (z-score),[19],2.09
same,glycan array binding signal (z-score),[20],0.002
same,glycan array binding signal (z-score),[21],-0.215
same,glycan array binding signal (z-score),[22],0.141
same,glycan array binding signal (z-score),[23],-0.003
same,glycan array binding signal (z-score),[24],-0.077
same,glycan array binding signal (z-score),[25],-0.121
same,glycan array binding signal (z-score),[26],0.079
same,glycan array binding signal (z-score),[27],-0.346
same,glycan array binding signal (z-score),[28],-0.192
same,glycan array binding signal (z-score),[29],0.025
same,glycan array binding signal (z-score),[30],-0.221
